Reference: PMC3646995
No constants are given. Whether binding was seen depends on the method and setting. Some results given as binding are weak or reduced against the parent protein; the word gives no strength.

Amino acid sequences for entries named in this document (tags omitted).
UniProt P06492: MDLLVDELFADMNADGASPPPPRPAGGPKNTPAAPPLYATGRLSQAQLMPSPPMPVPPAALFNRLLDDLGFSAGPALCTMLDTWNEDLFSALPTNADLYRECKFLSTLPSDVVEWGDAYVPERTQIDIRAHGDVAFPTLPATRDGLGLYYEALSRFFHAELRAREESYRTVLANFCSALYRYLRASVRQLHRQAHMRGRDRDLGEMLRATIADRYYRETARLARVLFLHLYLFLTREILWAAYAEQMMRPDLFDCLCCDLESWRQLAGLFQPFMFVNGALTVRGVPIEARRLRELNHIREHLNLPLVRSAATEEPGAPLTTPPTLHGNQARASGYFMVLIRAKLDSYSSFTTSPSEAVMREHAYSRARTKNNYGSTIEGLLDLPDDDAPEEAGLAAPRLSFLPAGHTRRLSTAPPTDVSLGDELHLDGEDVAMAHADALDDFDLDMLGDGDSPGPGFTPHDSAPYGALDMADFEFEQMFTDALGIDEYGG
UniProt Q14839: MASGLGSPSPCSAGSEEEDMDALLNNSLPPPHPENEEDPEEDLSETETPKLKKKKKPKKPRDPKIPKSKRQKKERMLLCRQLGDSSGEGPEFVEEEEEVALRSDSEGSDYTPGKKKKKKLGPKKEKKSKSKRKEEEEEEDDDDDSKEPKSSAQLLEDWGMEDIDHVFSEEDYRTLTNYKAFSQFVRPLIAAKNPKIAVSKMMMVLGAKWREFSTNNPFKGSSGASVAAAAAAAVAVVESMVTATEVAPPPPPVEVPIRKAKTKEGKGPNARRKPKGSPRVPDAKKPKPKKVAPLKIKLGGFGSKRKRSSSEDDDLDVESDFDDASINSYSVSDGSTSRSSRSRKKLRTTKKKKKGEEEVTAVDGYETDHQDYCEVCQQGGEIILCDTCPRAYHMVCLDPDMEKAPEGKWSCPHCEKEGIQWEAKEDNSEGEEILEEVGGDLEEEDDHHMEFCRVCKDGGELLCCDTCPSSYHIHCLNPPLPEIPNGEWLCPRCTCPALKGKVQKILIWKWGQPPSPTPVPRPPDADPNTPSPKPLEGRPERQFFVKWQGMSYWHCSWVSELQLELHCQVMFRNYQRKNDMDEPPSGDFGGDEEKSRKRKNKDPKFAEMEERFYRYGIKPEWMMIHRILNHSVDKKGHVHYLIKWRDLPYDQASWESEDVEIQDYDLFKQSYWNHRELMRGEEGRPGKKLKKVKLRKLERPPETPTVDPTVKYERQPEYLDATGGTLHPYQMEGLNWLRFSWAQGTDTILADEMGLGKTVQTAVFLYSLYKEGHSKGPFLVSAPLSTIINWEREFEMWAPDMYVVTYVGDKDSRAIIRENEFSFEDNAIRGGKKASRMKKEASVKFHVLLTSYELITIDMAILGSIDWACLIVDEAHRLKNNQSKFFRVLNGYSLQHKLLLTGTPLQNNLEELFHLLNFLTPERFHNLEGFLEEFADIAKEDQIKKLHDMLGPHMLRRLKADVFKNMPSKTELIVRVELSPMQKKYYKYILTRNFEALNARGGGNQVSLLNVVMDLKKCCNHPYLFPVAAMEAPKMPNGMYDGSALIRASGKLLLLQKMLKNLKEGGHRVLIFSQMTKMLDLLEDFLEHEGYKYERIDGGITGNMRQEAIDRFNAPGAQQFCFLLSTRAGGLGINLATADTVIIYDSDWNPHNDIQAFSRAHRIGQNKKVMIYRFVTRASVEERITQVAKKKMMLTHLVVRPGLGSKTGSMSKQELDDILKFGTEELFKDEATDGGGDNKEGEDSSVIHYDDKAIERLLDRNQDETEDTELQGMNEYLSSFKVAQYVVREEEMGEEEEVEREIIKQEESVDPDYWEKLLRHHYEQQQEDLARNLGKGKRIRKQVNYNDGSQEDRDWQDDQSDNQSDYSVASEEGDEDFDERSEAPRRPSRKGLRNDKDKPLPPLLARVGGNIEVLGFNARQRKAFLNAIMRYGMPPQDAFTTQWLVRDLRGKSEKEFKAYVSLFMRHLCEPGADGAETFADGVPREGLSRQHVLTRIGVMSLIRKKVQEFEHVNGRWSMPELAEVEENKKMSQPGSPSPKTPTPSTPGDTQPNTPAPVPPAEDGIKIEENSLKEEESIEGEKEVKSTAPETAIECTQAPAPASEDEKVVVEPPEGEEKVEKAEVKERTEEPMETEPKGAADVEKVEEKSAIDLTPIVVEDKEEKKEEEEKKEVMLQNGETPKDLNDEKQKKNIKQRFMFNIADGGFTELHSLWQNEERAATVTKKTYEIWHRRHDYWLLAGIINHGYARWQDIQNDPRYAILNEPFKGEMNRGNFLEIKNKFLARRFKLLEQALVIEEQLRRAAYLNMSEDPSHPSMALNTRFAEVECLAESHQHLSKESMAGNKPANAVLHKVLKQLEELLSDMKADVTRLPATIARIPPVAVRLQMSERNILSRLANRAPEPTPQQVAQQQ
UniProt Q92830: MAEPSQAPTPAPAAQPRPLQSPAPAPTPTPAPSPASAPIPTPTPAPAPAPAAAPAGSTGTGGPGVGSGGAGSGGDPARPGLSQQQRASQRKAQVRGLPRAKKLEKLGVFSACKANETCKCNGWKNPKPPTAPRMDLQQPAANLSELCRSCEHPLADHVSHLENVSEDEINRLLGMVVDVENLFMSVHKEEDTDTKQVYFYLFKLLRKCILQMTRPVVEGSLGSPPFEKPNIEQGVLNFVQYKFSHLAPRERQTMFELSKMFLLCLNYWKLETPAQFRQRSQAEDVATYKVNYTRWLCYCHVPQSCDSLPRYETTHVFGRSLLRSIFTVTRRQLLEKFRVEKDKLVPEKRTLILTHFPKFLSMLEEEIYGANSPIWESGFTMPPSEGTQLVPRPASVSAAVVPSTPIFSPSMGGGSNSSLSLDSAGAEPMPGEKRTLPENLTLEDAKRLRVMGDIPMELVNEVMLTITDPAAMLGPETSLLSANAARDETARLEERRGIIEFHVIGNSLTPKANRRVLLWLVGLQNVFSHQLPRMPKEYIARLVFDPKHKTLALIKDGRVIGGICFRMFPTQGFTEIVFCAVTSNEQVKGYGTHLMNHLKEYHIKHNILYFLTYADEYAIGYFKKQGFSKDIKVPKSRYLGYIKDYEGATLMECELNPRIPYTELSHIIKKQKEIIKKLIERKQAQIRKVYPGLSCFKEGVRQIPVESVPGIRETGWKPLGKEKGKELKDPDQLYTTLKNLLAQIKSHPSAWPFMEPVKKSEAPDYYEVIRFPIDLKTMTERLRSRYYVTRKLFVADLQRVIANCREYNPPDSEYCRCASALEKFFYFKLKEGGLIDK
UniProt Q92831: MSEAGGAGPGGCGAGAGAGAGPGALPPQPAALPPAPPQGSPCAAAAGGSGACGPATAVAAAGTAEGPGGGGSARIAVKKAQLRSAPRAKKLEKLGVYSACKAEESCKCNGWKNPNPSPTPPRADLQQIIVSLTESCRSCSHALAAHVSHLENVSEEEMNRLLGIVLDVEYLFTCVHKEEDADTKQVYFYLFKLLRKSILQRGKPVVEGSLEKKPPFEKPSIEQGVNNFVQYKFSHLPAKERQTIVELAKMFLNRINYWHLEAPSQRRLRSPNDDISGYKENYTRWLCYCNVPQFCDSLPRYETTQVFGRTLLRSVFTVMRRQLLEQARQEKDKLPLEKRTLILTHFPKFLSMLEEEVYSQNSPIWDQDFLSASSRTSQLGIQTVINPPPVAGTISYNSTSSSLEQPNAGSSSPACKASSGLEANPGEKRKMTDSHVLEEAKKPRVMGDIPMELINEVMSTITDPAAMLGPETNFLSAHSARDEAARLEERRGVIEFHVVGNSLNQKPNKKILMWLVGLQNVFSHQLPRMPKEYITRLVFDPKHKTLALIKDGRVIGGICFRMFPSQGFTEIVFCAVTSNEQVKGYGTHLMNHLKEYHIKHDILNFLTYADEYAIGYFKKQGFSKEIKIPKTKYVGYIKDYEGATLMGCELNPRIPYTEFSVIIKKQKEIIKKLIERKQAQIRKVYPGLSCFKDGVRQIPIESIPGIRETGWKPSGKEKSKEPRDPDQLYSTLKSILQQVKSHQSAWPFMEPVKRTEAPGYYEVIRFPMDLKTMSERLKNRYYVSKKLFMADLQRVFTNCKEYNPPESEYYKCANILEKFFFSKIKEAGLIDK
UniProt O60264: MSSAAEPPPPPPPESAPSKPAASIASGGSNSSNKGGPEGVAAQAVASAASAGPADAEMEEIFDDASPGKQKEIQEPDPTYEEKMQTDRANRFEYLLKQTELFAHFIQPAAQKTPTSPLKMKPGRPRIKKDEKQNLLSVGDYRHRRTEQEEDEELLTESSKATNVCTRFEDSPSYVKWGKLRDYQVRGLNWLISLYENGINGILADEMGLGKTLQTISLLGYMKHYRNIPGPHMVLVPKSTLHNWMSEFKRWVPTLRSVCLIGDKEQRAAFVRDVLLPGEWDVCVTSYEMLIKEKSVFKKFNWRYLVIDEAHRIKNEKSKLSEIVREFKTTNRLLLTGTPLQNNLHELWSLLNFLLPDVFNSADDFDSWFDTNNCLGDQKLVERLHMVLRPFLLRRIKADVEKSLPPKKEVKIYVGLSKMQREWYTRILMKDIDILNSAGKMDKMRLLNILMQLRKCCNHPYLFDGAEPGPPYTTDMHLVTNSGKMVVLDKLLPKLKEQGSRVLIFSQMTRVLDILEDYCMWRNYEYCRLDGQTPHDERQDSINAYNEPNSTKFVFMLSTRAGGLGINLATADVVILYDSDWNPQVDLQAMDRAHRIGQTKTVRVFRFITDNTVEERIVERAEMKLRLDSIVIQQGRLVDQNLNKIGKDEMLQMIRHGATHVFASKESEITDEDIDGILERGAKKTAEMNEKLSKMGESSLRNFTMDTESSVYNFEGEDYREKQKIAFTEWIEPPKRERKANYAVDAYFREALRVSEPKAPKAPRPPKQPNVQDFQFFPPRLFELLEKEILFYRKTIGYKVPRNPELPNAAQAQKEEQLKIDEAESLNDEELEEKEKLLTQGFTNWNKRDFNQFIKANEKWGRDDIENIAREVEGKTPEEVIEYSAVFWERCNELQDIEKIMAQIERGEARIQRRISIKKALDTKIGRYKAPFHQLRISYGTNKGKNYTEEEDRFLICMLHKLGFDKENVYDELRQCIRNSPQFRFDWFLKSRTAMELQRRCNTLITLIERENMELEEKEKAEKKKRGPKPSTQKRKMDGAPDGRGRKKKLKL
UniProt P25440: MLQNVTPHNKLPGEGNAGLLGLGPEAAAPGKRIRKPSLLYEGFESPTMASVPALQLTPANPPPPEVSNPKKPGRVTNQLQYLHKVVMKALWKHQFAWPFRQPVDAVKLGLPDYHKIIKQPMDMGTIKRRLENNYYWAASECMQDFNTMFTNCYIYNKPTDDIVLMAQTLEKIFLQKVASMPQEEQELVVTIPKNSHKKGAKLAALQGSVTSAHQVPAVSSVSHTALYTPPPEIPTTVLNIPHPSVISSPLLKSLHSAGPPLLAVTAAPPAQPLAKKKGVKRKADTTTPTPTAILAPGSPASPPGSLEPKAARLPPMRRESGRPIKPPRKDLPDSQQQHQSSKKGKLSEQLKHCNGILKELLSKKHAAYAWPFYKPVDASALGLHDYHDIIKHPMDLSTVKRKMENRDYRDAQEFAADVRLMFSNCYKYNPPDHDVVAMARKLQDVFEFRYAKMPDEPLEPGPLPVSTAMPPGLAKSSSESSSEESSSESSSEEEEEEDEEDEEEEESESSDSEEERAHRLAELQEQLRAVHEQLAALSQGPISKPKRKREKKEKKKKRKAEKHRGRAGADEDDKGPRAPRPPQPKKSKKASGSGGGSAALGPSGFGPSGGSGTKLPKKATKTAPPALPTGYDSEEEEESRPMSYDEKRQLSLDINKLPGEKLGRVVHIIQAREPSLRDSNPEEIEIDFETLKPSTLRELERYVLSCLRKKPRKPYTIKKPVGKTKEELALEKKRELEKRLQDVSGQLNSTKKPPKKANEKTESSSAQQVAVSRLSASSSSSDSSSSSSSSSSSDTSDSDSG

How the values were obtained:
[1] = molecular target: mCherry-LacR-LANA1 (p3xFLAG-CMV10-mCherry-LacR-LANA1) (Human herpesvirus 8 (KSHV)) (UniProt E5LC01); test: recruitment to a LacO array by a LacR fusion (confocal fluorescence microscopy); A03-1 cells (256xLacO arrays) co-transfected with an mCherry-LacR fusion, held on the array, and a GFP- or YFP-tagged protein; green fluorescence overlapping with the red array scored; more than 20 cells in each combination, three independent experiments
[2] = molecular target: mCherry-LacR-NLS-VP16 (herpes simplex virus (HSV)) (UniProt P06492); test: as above

In the case of GFP-CHD4 (from UniProt Q14839 1-1912), the binding [1] is reported as “no binding” and the binding [2] is reported as “binds”.
For “YFP-tagged GCN5 (from UniProt Q92830 1-837)”, the binding [1] was “no binding” and the binding [2] was “binds”.
With “YFP-tagged p300 (from UniProt Q09472 1-2414)” the binding [2] was “binds”.
“YFP-tagged pCAF (from UniProt Q92831 1-832)” was tested, and the binding [1] was “no binding” and the binding [2] was “binds”.
YFP-BRG1 (from UniProt P51532 1-1647) was tested, and the binding [2] was “binds”.
With SNF2H-GFP (from UniProt O60264 1-1052) the binding [1] was “no binding” and the binding [2] was “binds”.
For “YFP-tagged BRD2 (from UniProt P25440 1-801)”, the binding [1] was “binds” and the binding [2] was “binds”.
